# Source: patent publication US20150218244A1 (Hoffmann-La Roche, published 2015)
# T1: IL-10 receptor (IL-10R) on freshly isolated primary blood monocytes (human, UniProt Q13651 22-578; Q08334 20-325)
# T1 sequence (looked up) 1: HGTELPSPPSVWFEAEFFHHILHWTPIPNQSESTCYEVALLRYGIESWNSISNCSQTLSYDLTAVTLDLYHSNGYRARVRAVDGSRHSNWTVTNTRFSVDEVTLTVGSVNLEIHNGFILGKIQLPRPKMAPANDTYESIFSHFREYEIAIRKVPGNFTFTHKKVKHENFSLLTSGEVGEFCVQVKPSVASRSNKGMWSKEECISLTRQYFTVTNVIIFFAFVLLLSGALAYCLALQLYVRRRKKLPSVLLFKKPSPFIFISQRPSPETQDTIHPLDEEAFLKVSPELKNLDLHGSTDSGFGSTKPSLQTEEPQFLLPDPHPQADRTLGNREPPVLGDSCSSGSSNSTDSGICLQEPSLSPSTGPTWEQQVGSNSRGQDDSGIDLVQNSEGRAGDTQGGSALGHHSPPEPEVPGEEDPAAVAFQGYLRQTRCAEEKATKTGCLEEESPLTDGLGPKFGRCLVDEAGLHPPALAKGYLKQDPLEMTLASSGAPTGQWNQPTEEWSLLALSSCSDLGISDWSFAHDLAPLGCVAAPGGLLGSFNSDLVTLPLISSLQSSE
# T1 sequence (looked up) 2: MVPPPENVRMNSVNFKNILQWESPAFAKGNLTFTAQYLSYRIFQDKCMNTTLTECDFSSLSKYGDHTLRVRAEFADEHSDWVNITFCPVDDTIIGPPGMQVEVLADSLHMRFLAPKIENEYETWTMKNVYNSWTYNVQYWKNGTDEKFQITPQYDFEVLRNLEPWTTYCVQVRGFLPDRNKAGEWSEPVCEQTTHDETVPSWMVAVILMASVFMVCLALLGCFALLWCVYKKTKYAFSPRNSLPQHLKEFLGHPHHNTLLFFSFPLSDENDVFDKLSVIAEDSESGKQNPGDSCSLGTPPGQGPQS
# B1: 4G8 Fab-IL-10M1-Fab (other)
# heavy: [sequence of about 100 residues omitted]GWLGNFDYWGQGTLVTVSSASTKGPSVFPLAPSSKSTSGGTAALGCLVKDYFPEPVTVSWNSGALTSGVHTFPAVLQSSGLYSLSSVVTVPSSSLGTQTYICNVNHKPSNTKVDKKVEPKSCDGGGGSGGGGSGGGGSSPGQGTQSENSCTHFPGNLPNMLRDLRDAFSRVKTFFQMKDQLDNLLLKESLLEDFKGYLGCQALSEMIQFYLEEVMPQAENQDPDIKAHVNSLGENLKTLRLRLRRCHRFLPCENGGGSGGKSKAVEQVKNAFNKLQEKGIYKAMSEFDIFINYIEAYMTMKIRNGGGGSGGGGSGGGGS[sequence of about 100 residues omitted][sequence of about 120 residues omitted]
# light: EIVLTQSPGTLSLSPGERATLSCRASQSVSRSYLAWYQQKPGQAPRLLIIGASTRATGIPDRFSGSGSGTDFTLTISRLEPEDFAVYYCQQGQVIPPTFGQGTKVEIKRTVAAPSVFIFPPSDEQLKSGTASVVCLLNNFYPREAKVQWKVDNALQSGNSQESVTEQDSKDSTYSLSSTLTLSKADYEKHKVYACEVTHQGLSSPVTKSFNRGEC
# notes: Tandem Fab fragments with an engineered monomeric IL-10 between them; also called Fab-IL-10M1-Fab (clone 4G8)
# B2: 4B9 IgG-IL-10 (other)
# heavy: EVQLLESGGGLVQPGGSLRLSCAASGFTFSSYAMSWVRQAPGKGLEWVSAIIGSGASTYYADSVKGRFTISRDNSKNTLYLQMNSLRAEDTAVYYCAKGWFGGFNYWGQGTLVTVSSASTKGPSVFPLAPSSKSTSGGTAALGCLVKDYFPEPVTVSWNSGALTSGVHTFPAVLQSSGLYSLSSVVTVPSSSLGTQTYICNVNHKPSNTKVDKKV[sequence of human IgG1 Fc with changes omitted]GGGGSGGGGSGGGGSGGGGSSPGQGTQSENSCTHFPGNLPNMLRDLRDAFSRVKTFFQMKDQLDNLLLKESLLEDFKGYLGCQALSEMIQFYLEEVMPQAENQDPDIKAHVNSLGENLKTLRLRLRRCHRFLPCENKSKAVEQVKNAFNKLQEKGIYKAMSEFDIFINYIEAYMTMKIRN
# light: B1 light with S30T, R31S, I50N, G51V, A52G, T54R, Q93I, V94M, I95L
# B3: 4B9 IgG-(IL-10M1)2 (other)
# heavy: EVQLLESGGGLVQPGGSLRLSCAASGFTFSSYAMSWVRQAPGKGLEWVSAIIGSGASTYYADSVKGRFTISRDNSKNTLYLQMNSLRAEDTAVYYCAKGWFGGFNYWGQGTLVTVSSASTKGPSVFPLAPSSKSTSGGTAALGCLVKDYFPEPVTVSWNSGALTSGVHTFPAVLQSSGLYSLSSVVTVPSSSLGTQTYICNVNHKPSNTKVDKKV[sequence of human IgG1 Fc with changes omitted]GGGGSGGGGSGGGGSSPGQGTQSENSCTHFPGNLPNMLRDLRDAFSRVKTFFQMKDQLDNLLLKESLLEDFKGYLGCQALSEMIQFYLEEVMPQAENQDPDIKAHVNSLGENLKTLRLRLRRCHRFLPCENGGGSGGKSKAVEQVKNAFNKLQEKGIYKAMSEFDIFINYIEAYMTMKIRN
# light: B1 light with S30T, R31S, I50N, G51V, A52G, T54R, Q93I, V94M, I95L
# B4: 4G8 Fab-IL-10 (other)
# heavy: [sequence of about 100 residues omitted]GWLGNFDYWGQGTLVTVSSASTKGPSVFPLAPSSKSTSGGTAALGCLVKDYFPEPVTVSWNSGALTSGVHTFPAVLQSSGLYSLSSVVTVPSSSLGTQTYICNVNHKPSNTKVDKKVEPKSCDGGGGSGGGGSGGGGSSPGQGTQSENSCTHFPGNLPNMLRDLRDAFSRVKTFFQMKDQLDNLLLKESLLEDFKGYLGCQALSEMIQFYLEEVMPQAENQDPDIKAHVNSLGENLKTLRLRLRRCHRFLPCENKSKAVEQVKNAFNKLQEKGIYKAMSEFDIFINYIEAYMTMKIRN
# light: B1 light
# B5: 4G8 Fab-scIL-10-Fab (other)
# heavy: [sequence of about 100 residues omitted]GWLGNFDYWGQGTLVTVSSASTKGPSVFPLAPSSKSTSGGTAALGCLVKDYFPEPVTVSWNSGALTSGVHTFPAVLQSSGLYSLSSVVTVPSSSLGTQTYICNVNHKPSNTKVDKKVEPKSCDGGGGSGGGGSGGGGSSPGQGTQSENSCTHFPGNLPNMLRDLRDAFSRVKTFFQMKDQLDNLLLKESLLEDFKGYLGCQALSEMIQFYLEEVMPQAENQDPDIKAHVNSLGENLKTLRLRLRRCHRFLPCENKSKAVEQVKNAFNKLQEKGIYKAMSEFDIFINYIEAYMTMKIRNGGGGSGGGGSGGGGSGGGGSSPGQGTQSENSCTHFPGNLPNMLRDLRDAFSRVKTFFQMKDQLDNLLLKESLLEDFKGYLGCQALSEMIQFYLEEVMPQAENQDPDIKAHVNSLGENLKTLRLRLRRCHRFLPCENKSKAVEQVKNAFNKLQEKGIYKAMSEFDIFINYIEAYMTMKIRNGGGGSGGGGSGGGGS[sequence of about 100 residues omitted][sequence of about 120 residues omitted]
# light: B1 light
# B6: human IL-10R1 fused to an IgG Fc region, biotinylated (Fc fusion)
# chain: HGTELPSPPSVWFEAEFFHHILHWTPIPNQSESTCYEVALLRYGIESWNSISNCSQTLSYDLTAVTLDLYHSNGYRARVRAVDGSRHSNWTVTNTRFSVDEVTLTVGSVNLEIHNGFILGKIQLPRPKMAPANDTYESIFSHFREYEIAIRKVPGNFTFTHKKVKHENFSLLTSGEVGEFCVQVKPSVASRSNKGMWSKEECISLTRQYFTVTNVDEQLYFQGGS[sequence of human IgG1 Fc with C220A (EU numbers) omitted]GSGGLNDIFEAQKIEWHE
# modifications: biotinylated (site not stated)
# notes: also called hu IL-10R1; IL-10R1-Fc
# Experiments:
# [1] = biological target: T1, IL-10 receptor (IL-10R) on freshly …; experiment: cell-based or functional assay
# [2] = biological target: T1, IL-10 receptor (IL-10R) on freshly …; experiment: cell-based or functional assay; remark: listed apart in the source
# [3] = biological target: T2, IL-10-his wild type cytokine (human, UniProt P22301 19-178); experiment: SPR (ProteOn XPR36, 25 C), about 770 RU biotinylated IL-10R1-Fc on NLC chip, his-tagged cytokine as analyte
# T2 construct: also called IL-10 wt; IL-10 wild type cytokine
# Description: The SPR assay set-up is depicted in FIG. 15. About 770 RU of the biotinylated human IL-10R1 fused to an IgG Fc region (see SEQ ID NO: 87) were captured on the neutravidin-derivatized chip matrix of an NLC chip along vertical channels at a concentration of 30 μg/ml and a flow rate of 30 μl/min for a contact time or 240 s. Binding to huIL10R1 was measured at 5 different analyte concentrations (50, 10, 2, 0.4, 0.08 nM) by injections in horizontal orientation at 50 μl/min, recording the association rate for 180 s, the dissociation rate for 600 s. Running buffer (PBST) was injected along the sixth channel to provide an “in-line” blank for referencing. Association rates (kₒₙ) and dissociation rates (koff) were calculated using a simple 1:1 Langmuir binding model (ProteOn Manager software version 2.1) by simultaneously fitting the association and dissociation sensorgrams. The equilibrium dissociation constant (KD) was calculated as the ratio koff/kₒₙ. As human IL-10R1 could not be regenerated without a loss of activity, the subsequent steps of ligand capture and analyte injection were performed channel per channel using a freshly immobilized sensorchip surface for every interaction.
# A decreased affinity to the IL-10R1 may represent a distinct advantage when targeting IL-10 to inflamed tissues through fusion with an antibody.
# T2 sequence (P22301 other isoform, or with tags, fused parts or gaps limits assumed): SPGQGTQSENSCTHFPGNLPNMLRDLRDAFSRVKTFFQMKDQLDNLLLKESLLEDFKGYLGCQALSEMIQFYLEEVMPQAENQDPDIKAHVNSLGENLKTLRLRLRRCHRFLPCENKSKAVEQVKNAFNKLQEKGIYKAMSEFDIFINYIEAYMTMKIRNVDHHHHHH
Binder,"EC50 [nM] pSTAT3 induction, Donor 1 [1]","EC50 [nM] pSTAT3 induction, Donor 2 [1]","EC50 [nM] pSTAT3 induction, Donor 3 [1]",EC50 [nM] pSTAT3 induction [2],other results
B1,8.2 nM,9.01 nM,6.81 nM,–,–
B2,–,–,–,0.13 nM,–
B3,–,–,–,0.435 nM,–
B4,0.154 nM,0.194 nM,0.087 nM,–,–
B5,0.557 nM,0.43 nM,0.116 nM,–,–
B6,–,–,–,–,Kd [3]: 0.0389 nM; koff [3]: 0.000108 s⁻¹; kon [3]: 2.76e+06 M⁻¹ s⁻¹

# Changes are numbered by the printed parent chain.
